Results reported in PubChem BioAssay (NCI).
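Interpolation was linear, between the two tested concentrations surrounding the appropriate level; five concentrations were tested over 48 hours in 96-well plates. GI50: concentration for 50% inhibition of growth. Definition used: TGI = concentration required for complete inhibition of growth.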

What follows are compounds tested on NCI-H322M lung (assay: DTP human tumour cell line panel, 48 h).

Going from `C#C[C@]1(O)CC[C@H]2[C@@H]3CC=C4c5sc(-c6ccc(C)cc6)nc5CC[C@]4(C)[C@H]3CC[C@@]21C` to `CS(=O)(=O)c1nccc(-c2c(-c3ccc(F)c(OCCc4ccccc4)c3)nc3sccn23)n1`, the GI50 falls from greater than 100 µM to 15.2 µM.

`ClC(Cl)c1nc(-c2ccco2)n2nc(-c3ccccc3)cc2n1` gave a GI50 of 1.37 µM.

Compared with `C#C[C@]1(O)CC[C@H]2[C@@H]3CC=C4c5sc(-c6ccc(C)cc6)nc5CC[C@]4(C)[C@H]3CC[C@@]21C`, `CS(=O)(=O)c1nccc(-c2c(-c3ccc(F)c(OCCc4ccccc4)c3)nc3sccn23)n1` is lower in TGI: greater than 100 µM for the first, 30.2 µM for the second.

Compared with `ClC(Cl)c1nc(-c2ccco2)n2nc(-c3ccccc3)cc2n1`, `COc1cc(C)c(-c2ccc(OC)c(=O)cc2C)c(OC)c1OC` is higher in TGI: 4.9 µM for the first, greater than 100 µM for the second.
